{"source": "paper PMC6919601", "about": "“Identification of Plasmodium dipeptidyl aminopeptidase allosteric inhibitors by high throughput screening” (PLoS ONE, 2019)", "note": "“And” between values parts separate entries of the source, which are not always exact repeats. Equal entries are not always repeated. The campaign covered roughly 110,000 compounds. About 230 (0.21%) showed an effect of 50% or more. The list shows a part of the results.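 Further: 30 min substrate incubation versus DMSO and 10 µM JCP410 controls.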"}
{"biological_target": "DPAP1 (Plasmodium falciparum, UniProt Q8IIJ9)", "sequence (Q8IIJ9 whole entry, looked up)": "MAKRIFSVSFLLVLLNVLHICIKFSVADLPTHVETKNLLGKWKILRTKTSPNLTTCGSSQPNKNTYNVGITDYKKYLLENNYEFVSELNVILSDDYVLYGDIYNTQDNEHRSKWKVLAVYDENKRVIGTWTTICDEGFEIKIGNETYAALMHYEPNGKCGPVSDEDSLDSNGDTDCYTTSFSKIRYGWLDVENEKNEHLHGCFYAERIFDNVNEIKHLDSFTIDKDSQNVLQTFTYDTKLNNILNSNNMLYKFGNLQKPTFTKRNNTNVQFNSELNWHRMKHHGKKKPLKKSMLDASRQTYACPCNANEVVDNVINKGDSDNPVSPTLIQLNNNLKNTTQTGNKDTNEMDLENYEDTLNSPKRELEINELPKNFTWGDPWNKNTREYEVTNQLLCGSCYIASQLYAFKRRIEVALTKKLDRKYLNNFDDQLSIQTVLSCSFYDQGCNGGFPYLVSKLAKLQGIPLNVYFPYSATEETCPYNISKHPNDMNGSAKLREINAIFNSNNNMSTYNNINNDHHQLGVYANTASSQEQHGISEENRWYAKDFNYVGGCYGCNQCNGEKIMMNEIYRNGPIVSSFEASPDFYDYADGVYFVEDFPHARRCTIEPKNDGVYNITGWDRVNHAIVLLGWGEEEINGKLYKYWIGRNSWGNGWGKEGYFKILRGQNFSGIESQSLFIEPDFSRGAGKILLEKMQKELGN", "test": "primary screen, percent inhibition; read by cleavage of a fluorogenic dipeptide substrate; higher = more effect of the substance", "set-up": "species or system P. falciparum D10 trophozoite lysates; single well"}
{"smiles": "O=C(CCCCCn1c(=O)c2sccc2n(Cc2cccnc2)c1=O)NCc1ccccc1Cl", "% Inhibition @ 10 uM": "-4.43%"}
{"smiles": "CC(=O)N1CCN(C2CCCCCC2)CC1", "% Inhibition @ 10 uM": "1.57%"}
{"smiles": "COc1ccccc1/C=C/c1nc(C#N)c(N2CCCC2)o1", "% Inhibition @ 10 uM": "-0.808%"}
{"smiles": "Cn1c(NCc2ccccn2)nc2ccccc21", "% Inhibition @ 10 uM": "-0.872%"}
{"smiles": "O=C(NCCc1c[nH]c2ccccc12)C1CCN(c2ncnc3c2sc2cccc(F)c23)CC1", "% Inhibition @ 10 uM": "2.65%"}
{"smiles": "O=C(Nc1ccncc1)c1ccccc1O", "% Inhibition @ 10 uM": "13.1%"}
{"smiles": "N#Cc1ccc(Oc2ccc(C(=O)Nc3ccccc3)cc2)cc1", "% Inhibition @ 10 uM": "0.0345%"}
{"smiles": "O=C(/C=C/c1ccccc1)NCc1ccc2c(c1)OCO2", "% Inhibition @ 10 uM": "-1.37%"}
{"smiles": "COc1ccc(C2C3=C(O)CC(C)(C)CC3=Nc3ccccc3N2C(=O)C(F)(F)F)cc1OC", "note": "(centres unmarked)", "% Inhibition @ 10 uM": "-1.44%"}
{"smiles": "CC(=O)c1sc(Nc2ccc(S(=O)(=O)Nc3onc(C)c3C)cc2)nc1C", "% Inhibition @ 10 uM": "-5.3%"}
{"smiles": "O=C(Nc1cnc2ccccc2c1)c1ccncc1", "% Inhibition @ 10 uM": "-0.615%"}
{"smiles": "COc1ccc(C(C(=O)O)N2Cc3ccccc3C2=O)cc1", "note": "(centres unmarked)", "% Inhibition @ 10 uM": "0.708%"}
{"smiles": "O=C(CCN1CCN(C2C3CC4CC(C3)CC2C4)CC1)N1c2ccccc2Sc2ccc(C(F)(F)F)cc21", "note": "(centres unmarked)", "% Inhibition @ 10 uM": "-3.14%"}
{"smiles": "O=C(NCC1CCCO1)C1CCN(C(=O)c2ccc(-n3ccc4ccccc43)s2)CC1", "note": "(centres unmarked)", "% Inhibition @ 10 uM": "0.0489%"}
{"smiles": "Cn1c(C2CCCO2)nc2ccccc21", "note": "(centres unmarked)", "% Inhibition @ 10 uM": "6.78%"}
{"smiles": "CCOc1ccc(/C=C2\\SC(Nc3ccc(F)cc3)=NC2=O)cc1", "% Inhibition @ 10 uM": "0.993%"}
{"smiles": "Cc1ccc(Cl)cc1-n1ncc2c(NCc3cccnc3)ncnc21", "% Inhibition @ 10 uM": "3.52%"}
{"smiles": "O=C(CSc1ccc(Cl)cc1)Nc1ncc2c(n1)CC(c1cccs1)CC2=O", "note": "(centres unmarked)", "% Inhibition @ 10 uM": "0.83%"}
{"smiles": "Cc1ccc(N2C(=O)CC(NCCc3ccccc3)C2=O)cc1", "note": "(centres unmarked)", "% Inhibition @ 10 uM": "1.78%"}
{"smiles": "COc1ccc(C2c3c(-c4ccccc4O)n[nH]c3C(=O)N2CCO)cc1OC", "note": "(centres unmarked)", "% Inhibition @ 10 uM": "0.366%"}
{"smiles": "COc1ccc(CN2CCCC(O)C2)cc1C", "note": "(centres unmarked)", "% Inhibition @ 10 uM": "-6.36%"}
{"smiles": "COc1ccccc1C(=O)Nc1cc(Cl)ccc1Cl", "% Inhibition @ 10 uM": "-1.98%"}
{"smiles": "COc1cccc(C(=O)N2CCN(C(=O)c3cccnc3)CC2)c1", "% Inhibition @ 10 uM": "-9.87%"}
{"smiles": "Cc1ccccc1NC(=O)c1c(-c2ccccc2Cl)noc1C", "% Inhibition @ 10 uM": "7.96%"}
{"smiles": "CCCCOc1cccc(C2c3c(-c4c(C)cc(C)cc4O)n[nH]c3C(=O)N2CCO)c1", "note": "(centres unmarked)", "% Inhibition @ 10 uM": "4.83%"}
{"smiles": "O=[N+]([O-])c1ccccc1CN1CCSCC1", "% Inhibition @ 10 uM": "-2.03%"}
{"smiles": "CC1CCCC(C(=O)O)N1C(=O)CCSC(=O)c1ccccc1", "note": "(centres unmarked)", "% Inhibition @ 10 uM": "-7.09%"}
{"smiles": "C=CCn1c2ccccc2n2cc(C)nc12", "% Inhibition @ 10 uM": "1.8%"}
{"smiles": "Oc1c2c(nc3c(-c4ccc(Cl)cc4)c(Cc4ccccc4)nn13)CCCC2", "% Inhibition @ 10 uM": "4.88%"}
{"smiles": "Cc1cc(C)n(-c2nnc(C)n2/N=C/c2ccc(OC(C)C)cc2)n1", "% Inhibition @ 10 uM": "-2.98%"}
{"smiles": "CCC/N=c1\\c(NC(=O)c2ccc(C(C)(C)C)cc2)c(O)oc2ccccc12", "% Inhibition @ 10 uM": "-0.441%"}
{"smiles": "NC(=O)c1cc(S(=O)(=O)NCCc2ccco2)cs1", "% Inhibition @ 10 uM": "0.879%"}
{"smiles": "Cc1nnc(N2CCC(C(=O)N3CCCCCC3)CC2)c2nn(-c3ccc(Cl)cc3)c(C)c12", "% Inhibition @ 10 uM": "9.05%"}
{"smiles": "Cc1nn(-c2ccccc2)c2c1N(CC(=O)NCC1CCCO1)C(=O)CS2", "note": "(centres unmarked)", "% Inhibition @ 10 uM": "5.94%"}
{"smiles": "COc1ccc(C2CC(=O)C3=C(C2)NC(=O)CC3c2ccc(F)cc2)cc1OC", "note": "(centres unmarked)", "% Inhibition @ 10 uM": "0.8%"}
{"smiles": "CC(C)CCNC(=O)Cn1c(=O)c2cccn2c2cccnc21", "% Inhibition @ 10 uM": "-1.81%"}
{"smiles": "CCc1ccc(OCC(=O)N(Cc2ccccc2F)C2CCS(=O)(=O)C2)cc1", "note": "(centres unmarked)", "% Inhibition @ 10 uM": "0.366%"}
{"smiles": "NC(=O)CC[C@H](NC(=O)OCc1ccccc1)C(=O)N[C@H](CCc1ccccc1)C(=O)CO", "% Inhibition @ 10 uM": "-3.97%"}
{"smiles": "Cc1cc(C)n2c(SCc3nnnn3-c3ccccc3)nnc2n1", "% Inhibition @ 10 uM": "-2.91%"}
{"smiles": "COc1ccc(CNc2nc(-c3ccc(Cl)cc3)nn2S(=O)(=O)c2ccccc2)cc1", "% Inhibition @ 10 uM": "0.628%"}
{"smiles": "COc1cc(/C=C2/SC(N3CC(C)OC(C)C3)=NC2=O)ccc1O", "note": "(centres unmarked)", "% Inhibition @ 10 uM": "1.28%"}
{"smiles": "CN(CCCNC(=O)C1CCC(CNS(=O)(=O)c2ccccc2)CC1)Cc1ccccc1", "note": "(centres unmarked)", "% Inhibition @ 10 uM": "-2.72%"}
{"smiles": "Cc1[nH]nc2c1C1(CCN(Cc3ccccc3)CC1)C(C#N)=C(N)O2", "% Inhibition @ 10 uM": "-2.48% and 3.01%"}
{"smiles": "Nc1ccccc1/N=C1/C=C(O)CC(c2cccs2)C1", "note": "(centres unmarked)", "% Inhibition @ 10 uM": "2.44%"}
{"smiles": "CC(C)c1ccc(SCCc2ccccn2)cc1", "% Inhibition @ 10 uM": "5%"}
{"smiles": "CCOC(=O)c1c2n(c3cc(Cl)c([N+](=O)[O-])cc3c1=O)CCCCC2", "% Inhibition @ 10 uM": "3.1%"}
{"smiles": "O=C(NCCc1ccc(Cl)cc1)C1CCC(=O)N1CCc1ccccc1", "note": "(centres unmarked)", "% Inhibition @ 10 uM": "4.81%"}
{"smiles": "CN(C)c1ccc(C2C3=C(O)CC(C)(C)CC3=Nc3ncnn32)cc1", "note": "(centres unmarked)", "% Inhibition @ 10 uM": "-3.63%"}
{"smiles": "Cc1cc2c(cc3c(SCc4nc(-c5ccccc5F)oc4C)nnc(C)n32)o1", "% Inhibition @ 10 uM": "0.896%"}
{"smiles": "CC(Oc1ccc(Cl)cc1Cl)c1nc(-c2ccncc2)no1", "note": "(centres unmarked)", "% Inhibition @ 10 uM": "-6.86%"}
